{
  "source": "ChEMBL document CHEMBL4888484",
  "about": "“Replenishing the malaria drug discovery pipeline: Screening and hit evaluation of the MMV Hit Generation Library 1 (HGL1) against asexual blood stage Plasmodium falciparum ,using a nano luciferase reporter read-out” (2022)",
  "note": "Among all 150,000 compounds or so, about 540 (0.36%) showed an effect of 50% or more. This is one part of the list.",
  "data": [
    {"test_system": "Plasmodium falciparum", "assay": "Primary screen in NF54 nanoGlo assay, in single point, at 2uM, 72h; a lower Z score goes with more inhibition", "type": "functional, Erythrocyte", "settings": "timepoint 72 hour", "units": {"% Inhibition": "%"}, "values": [
      {"smiles": "c1ccc(COCCCN2CCCC3CCCC32)cc1", "note": "(stereo not given)", "% Inhibition": 0, "Z score": -0.03},
      {"smiles": "CCCCn1cc(C(=O)NCC2(OC)CCCC2)c(C)n1", "% Inhibition": 3, "Z score": -0.4},
      {"smiles": "CN(Cc1cccnc1)[C@H]1CCCN(c2ccccc2)C1", "% Inhibition": -2, "Z score": 0.24},
      {"smiles": "CCCCN1CCOC[C@H]1C(=O)NC1CCN(C(=O)c2cc(Cl)c[nH]2)CC1", "% Inhibition": 5, "Z score": -0.62},
      {"smiles": "Cc1c(CN2CCN(C3CCN(C(C)C)CC3)[C@@H](CCO)C2)[nH]c2c(Cl)cccc12", "% Inhibition": 11, "Z score": -1.74},
      {"smiles": "N#CC1(C#N)C(C(N)=O)C1c1ccccc1", "note": "(stereo not given)", "% Inhibition": 10, "Z score": -1.96},
      {"smiles": "CCC(=O)NCc1nc2c(n1C)CN(C(=O)c1ccc(CC)cc1)CC2", "% Inhibition": 2, "Z score": -0.2},
      {"smiles": "C[C@H]1CN(S(=O)(=O)c2ccc3ccccc3c2)CCO1", "% Inhibition": -16, "Z score": 2.82},
      {"smiles": "C[C@@]1(O)CCN(CC2CCCCC2)C[C@H]1N1CCCC1", "% Inhibition": -13, "Z score": 1.69},
      {"smiles": "CS(=O)(=O)C1CCCC(NC(=O)C2CCCc3ccccc32)C1", "note": "(stereo not given)", "% Inhibition": -14, "Z score": 2.54},
      {"smiles": "COc1cc(/C=C/C2CCCCC2)nc(N)n1", "% Inhibition": 4, "Z score": -0.53},
      {"smiles": "Cc1ccc(S(=O)(=O)NCCc2nc(-c3ccc(=O)[nH]c3)no2)cc1", "% Inhibition": 2, "Z score": -0.41},
      {"smiles": "CN(C)C(=O)c1ccc(NCCNC(=O)OC(C)(C)C)c(N)c1", "% Inhibition": 3, "Z score": -0.37},
      {"smiles": "CCN1CCC(CCNC(=O)N2CCN(c3ccccc3)C(=O)[C@@H]2C)CC1", "% Inhibition": 7, "Z score": -1.1},
      {"smiles": "CCCCN1C(=O)CC(C(=O)NC2CCN(Cc3ccc(F)c(F)c3)CC2)C1c1ccc(OC)cc1", "note": "(stereo not given)", "% Inhibition": -6, "Z score": 0.93},
      {"smiles": "CC1(C)[C@@H](c2ccc(Cl)cc2)CCN1Cc1nc(C(=O)O)co1", "% Inhibition": 2, "Z score": -0.28},
      {"smiles": "CCc1ncsc1NC(=O)c1sc(CC2CC2)nc1C", "% Inhibition": -12, "Z score": 1.53},
      {"smiles": "CCn1ncc(NC(=O)Cn2cc(-c3ncnc4sccc34)cn2)n1", "% Inhibition": -3, "Z score": 0.49},
      {"smiles": "O=C(NC1C=CCCC1)[C@H]1CC=CC[C@H]1C(=O)NC1C=CCCC1", "note": "(stereo not given in full)", "% Inhibition": -8, "Z score": 0.99},
      {"smiles": "Cc1cc(F)ccc1NC(=O)Cn1c(=O)ccc2cc(S(=O)(=O)N3CCCC3)ccc21", "% Inhibition": -11, "Z score": 1.42},
      {"smiles": "CCn1nc(C)c(CN2CCC[C@H]2c2ccnn2C)n1", "% Inhibition": -7, "Z score": 1.04},
      {"smiles": "COC[C@H](NC(=O)Cc1nonc1C)c1ccccn1", "% Inhibition": 0, "Z score": -0.03},
      {"smiles": "CNC(=N[C@@H](C)c1cccs1)NCCN1CCCCC1", "% Inhibition": -10, "Z score": 1.96},
      {"smiles": "O=C(Nc1ccccc1F)[C@@H]1COCC(=O)N1Cc1cccs1", "% Inhibition": -1, "Z score": 0.2},
      {"smiles": "CS(=O)(=O)NCCCNc1nc(-c2ccc(Cl)cc2)no1", "% Inhibition": 31, "Z score": -3.5},
      {"smiles": "CC1OCCC1NC(=O)NC1CCOC(c2ccccc2)C1", "note": "(stereo not given)", "% Inhibition": -2, "Z score": 0.38},
      {"smiles": "CCc1ccccc1NC(=O)N1CCN(c2nc3cc(Br)ccc3n3cccc23)CC1", "% Inhibition": -7, "Z score": 0.99},
      {"smiles": "CNc1cc(N2CCC(c3nnc(CN4CCCC4)n3C)CC2)nc(N)n1", "% Inhibition": -1, "Z score": 0.11},
      {"smiles": "CCn1ccc(C(=O)N2CCC[C@](C)(c3noc(C4CCOCC4)n3)C2)n1", "% Inhibition": -7, "Z score": 1.13},
      {"smiles": "COCc1nccc(NC(=O)NCc2c(F)cc(C)cc2F)n1", "% Inhibition": -11, "Z score": 1.85},
      {"smiles": "O=C(CN1C(=O)CNC1=O)N[C@@H]1[C@H]2CCO[C@H]2[C@H]1Cc1ccccc1", "% Inhibition": -23, "Z score": 2.22},
      {"smiles": "CCCS(=O)(=O)N(CCOC)CC(=O)N(Cc1ccc(Cl)cc1)C1CCN(C(=O)Nc2ccccc2OC)CC1", "% Inhibition": -16, "Z score": 1.66},
      {"smiles": "CC(NCC1CN(C)CCO1)C(=O)N1CCN(c2ccccc2)CC1", "note": "(stereo not given)", "% Inhibition": 0, "Z score": 0.02},
      {"smiles": "C=C(C)CNC(=O)NCc1ccc(C(C)(C)O)cc1", "% Inhibition": -15, "Z score": 3.03},
      {"smiles": "O=C(Nc1ccccc1F)N1CC(N(Cc2ccccc2)C2CCOCC2)C1", "% Inhibition": 13, "Z score": -2.55},
      {"smiles": "CN1CCN(c2ccnc(C(=O)NCc3ccccc3)c2)CC1=O", "% Inhibition": -12, "Z score": 1.54},
      {"smiles": "COc1cccc(-n2cnc3c2N=C(O)C[C@@H]3c2cccc(F)c2F)c1", "% Inhibition": 33, "Z score": -3.75},
      {"smiles": "CC1(C)C[C@@H]1NC(=O)N1CCn2cncc2C1", "% Inhibition": -6, "Z score": 0.79},
      {"smiles": "CCCn1nccc1C(=O)N1CCCC[C@H]1c1ccco1", "% Inhibition": -6, "Z score": 0.59},
      {"smiles": "O=C(C[C@H]1CCc2n[nH]c(=O)n2CC1)NCCc1cccs1", "% Inhibition": 4, "Z score": -0.6},
      {"smiles": "CC(=O)N1CCCN(C[C@H]2CCCN(C(=O)OC(C)(C)C)C2)CC1", "% Inhibition": -10, "Z score": 1.01},
      {"smiles": "COc1ccc(OC)c(NC(=O)CC(C)NC2CCCc3occc32)c1", "note": "(stereo not given)", "% Inhibition": -6, "Z score": 0.6},
      {"smiles": "CCC(CC)N(C)S(=O)(=O)c1cccnc1", "% Inhibition": -3, "Z score": 0.33},
      {"smiles": "COCCN1C(=O)[C@@H]2CC[C@H]1CN(c1cc(C(C)C)nc(C)n1)C2", "% Inhibition": -7, "Z score": 1.43},
      {"smiles": "Cn1cc(CCNC(=O)C(=O)Nc2cc(F)c(F)c(F)c2)cn1", "% Inhibition": -13, "Z score": 1.13},
      {"smiles": "COC(=O)[C@@H](C)CN(C)c1ncnc2[nH]ccc12", "% Inhibition": 3, "Z score": -0.41},
      {"smiles": "Cc1ccc2[nH]c(CNC3CCN(c4ccccc4C)CC3)nc2c1", "% Inhibition": -6, "Z score": 1.26},
      {"smiles": "CCN(CCS(N)(=O)=O)Cc1cc(Br)ccc1F", "% Inhibition": 4, "Z score": -0.43},
      {"smiles": "Cc1cc(=O)n(CCN2CCC[C@H](C#N)C2)c(=O)[nH]1", "% Inhibition": -12, "Z score": 2.14},
      {"smiles": "CC1CC(Nc2cnn3ccccc23)CCO1", "note": "(stereo not given)", "% Inhibition": -5, "Z score": 1.08},
      {"smiles": "O=C(NCc1nnc2n1CCC2)[C@@H]1Cc2cc(Cl)ccc2N1", "% Inhibition": -15, "Z score": 2.78},
      {"smiles": "O=C1CC2(CCN(S(=O)(=O)c3ccc(-n4cccn4)cc3)CC2)CN1", "% Inhibition": 3, "Z score": -0.53},
      {"smiles": "COc1ccc2[nH]c(CN3CCOC4(CCCC4)C3)c(C)c2c1", "% Inhibition": -1, "Z score": 0.19},
      {"smiles": "CC(NC1(CO)CCc2ccccc21)c1nccs1", "note": "(stereo not given)", "% Inhibition": -2, "Z score": 0.33},
      {"smiles": "COc1ccc(S(=O)(=O)N2C[C@@H]3CCCN3c3ccc(C(F)(F)F)cc32)cc1", "% Inhibition": 31, "Z score": -3.98}
    ]}
  ]
}
